This is one part of the list.
The compounds below were run on S. aureus RN4220 (assay: growth inhibition call (relative growth <= 0.2)). Conditions: 50 µM.

Growth inhibition call, inactive:
Cc1ccc(S(=O)(=O)N(C)C[C@@H]2Oc3ccc(NS(=O)(=O)c4cn(C)cn4)cc3C(=O)N([C@@H](C)CO)C[C@@H]2C)cc1
CO[C@H]1CN(C)C(=O)c2cc(NS(=O)(=O)CC(F)(F)F)ccc2OC[C@@H](C)N(Cc2ccccn2)C[C@H]1C
C[N+]1(C)C[C@H](O)[C@H](C(=O)O)C1
COc1ccc(S(=O)(=O)Nc2ccc3c(c2)CC(=O)N([C@H](C)CO)C[C@H](C)[C@H](CN(C)CC2CC2)O3)cc1
O=C(C[C@H]1C[C@H]2c3cc(NC(=O)c4cccnc4)ccc3O[C@H]2[C@@H](CO)O1)NCc1cc(F)ccc1F
O=C(CNCCO)Nc1ccc(F)c(Cl)c1
C[C@H](CO)N1C[C@H](C)[C@@H](CN(C)S(=O)(=O)c2ccc(F)cc2)Oc2c(NC(=O)C3CCOCC3)cccc2C1=O
COc1ccc(S(=O)(=O)N(C)C[C@H]2OCCCC[C@@H](C)Oc3ccc(NC(=O)C4CCCCC4)cc3C(=O)N([C@H](C)CO)C[C@@H]2C)cc1
COc1ccc(S(=O)(=O)Nc2ccc3c(c2)CC(=O)N([C@@H](C)CO)C[C@H](C)[C@H](CN(C)Cc2ccc(Oc4ccccc4)cc2)O3)cc1
C[C@@H]1CN([C@H](C)CO)C(=O)c2cccc(NC(=O)c3cnccn3)c2O[C@H]1CN(C)C(=O)Nc1ccc(F)cc1
COc1ccc(NC(=O)Nc2ccc3c(c2)C(=O)N([C@@H](C)CO)C[C@H](C)[C@@H](CN(C)S(=O)(=O)c2c(C)noc2C)OCCCC[C@H](C)O3)cc1

— the antibiotic and cytotoxicity screens of Wong et al. (2023)
